The whole screen tested about 360,000 compounds, of which about 660 (0.18%) were called active. Inconclusive results, whose numbers are uncertain, are shown with a selection of clear calls. Calls follow the shape of the dose curve; as a rule, active = well fitted inhibition curve with a large enough effect; inconclusive = small, poorly fitted or top-dose-only effect; inactive = no such curve, though single readings can be large or run the other way. Potencies of inconclusive entries are left out as doubtful fits.
What follows are compounds tested against Rap guanine nucleotide exchange factor 4 (Homo sapiens) (UniProt Q8WZA2) (assay: qHTS for Antagonist of cAMP-regulated guanine nucleotide exchange factor 2 (EPAC2): primary screen). Conditions: EPAC2 GEF exchange of Rap1B-BODIPY-GDP, fluorescence; series mostly up to 114 µM.
Chain of UniProt Q8WZA2 (Q8WZA2 whole entry, looked up): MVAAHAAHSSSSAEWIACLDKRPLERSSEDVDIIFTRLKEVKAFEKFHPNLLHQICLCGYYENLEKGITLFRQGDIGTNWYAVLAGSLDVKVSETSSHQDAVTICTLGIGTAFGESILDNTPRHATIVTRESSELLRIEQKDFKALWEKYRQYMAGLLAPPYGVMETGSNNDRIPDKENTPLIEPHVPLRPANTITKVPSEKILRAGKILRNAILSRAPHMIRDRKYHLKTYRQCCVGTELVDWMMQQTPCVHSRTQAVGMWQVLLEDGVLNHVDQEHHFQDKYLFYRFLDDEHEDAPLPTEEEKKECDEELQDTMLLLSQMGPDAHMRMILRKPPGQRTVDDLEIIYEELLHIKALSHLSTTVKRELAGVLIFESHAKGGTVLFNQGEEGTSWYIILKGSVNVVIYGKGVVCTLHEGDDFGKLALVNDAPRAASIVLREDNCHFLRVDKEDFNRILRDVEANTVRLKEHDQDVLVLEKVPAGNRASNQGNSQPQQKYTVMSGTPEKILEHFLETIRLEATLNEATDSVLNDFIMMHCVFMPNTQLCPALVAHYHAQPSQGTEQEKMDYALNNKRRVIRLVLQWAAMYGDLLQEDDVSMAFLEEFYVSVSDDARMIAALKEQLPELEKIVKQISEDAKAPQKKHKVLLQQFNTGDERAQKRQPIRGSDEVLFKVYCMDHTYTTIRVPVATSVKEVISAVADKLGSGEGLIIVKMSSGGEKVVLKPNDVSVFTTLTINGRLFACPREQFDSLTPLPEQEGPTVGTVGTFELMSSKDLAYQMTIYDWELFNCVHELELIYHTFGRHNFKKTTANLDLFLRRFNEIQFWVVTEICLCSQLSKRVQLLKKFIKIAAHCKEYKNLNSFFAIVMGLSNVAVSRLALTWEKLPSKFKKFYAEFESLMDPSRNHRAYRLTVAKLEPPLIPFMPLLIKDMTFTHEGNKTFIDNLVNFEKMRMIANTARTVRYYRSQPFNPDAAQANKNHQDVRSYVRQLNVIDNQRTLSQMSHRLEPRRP
Also: nearly all actives have a fitted effect of over 45% in size.
Potency is read from the fitted curve at half-maximal effect; tags tell the direction and shape of the fitted curve.

| Structure (SMILES) | Potency |
| --- | --- |
| CCOC(=O)C1=CCN(S(=O)(=O)c2ccccc2F)C1c1cccc(F)c1 (stereo unspecified) | inconclusive [inhibitor, partial curve] |
| Cc1cccc(NC(=O)c2ccc(NCCc3ccccc3)c([N+](=O)[O-])c2)c1 | inconclusive [inhibitor, partial curve] |
| Cc1c(Cl)cccc1NC(=S)NCC(C)C | inconclusive [inhibitor, full curve] |
| Cc1ccc(C(=O)NC(=S)N2CCCCCC2)cc1 | inactive |
| CCc1nn(C)c(N)c1C | inactive |
| CCOc1cc(C(N)=O)cc(Cl)c1OCc1ccccc1 | inconclusive [inhibitor, partial curve] |
| OCc1cccc(-c2cnc3c(Nc4cccc(OC(F)(F)C(F)F)c4)nccn23)c1 | inconclusive [inhibitor, full curve] |
| CN(CCOc1ccccc1)C(=O)CCc1c[nH]c2ccccc12 | inconclusive [inhibitor, partial curve] |
| Oc1ccc(-c2csc(Nc3cccnc3)n2)cc1 | inconclusive [inhibitor, partial curve] |
| COc1ccccc1NC(=O)Oc1cccc(OC(=O)c2ccccc2)c1 | inactive |
| CC(=O)Nc1ccc(NC(=O)C2CCN(c3ccc(C(F)(F)F)cn3)CC2)cc1 | inconclusive [inhibitor, partial curve] |
| CC1=C(C(=O)N2CCCCCC2)CC(CC(=O)NC2CCCC2)C(=O)N1Cc1ccc(C(C)(C)C)cc1 (stereo unspecified) | inactive |
| CC(=O)NC(C)CCc1ccccc1 (stereo unspecified) | inactive |
| COc1ccc(-c2nc(C)ncc2-c2ccccc2)c(O)c1 | inconclusive [inhibitor, partial curve] |
| O=C(/C=C/c1cccc([N+](=O)[O-])c1)Nc1cccc(NC(=O)c2ccco2)c1 | inconclusive [inhibitor, single point] |
| COc1cccc(C(=O)NNC(=O)C(=O)Nc2cccc3ccccc23)c1 | inconclusive [inhibitor, full curve, poor fit] |
| CC(=O)c1ccc(NC(=O)C2(c3ccccc3)CCOCC2)cc1 | inactive |
| CC(C)CC1C(=O)N(Cc2cn(Cc3ccco3)nn2)CCS(=O)(=O)N1Cc1ccc(-c2ccccc2)cc1 (stereo unspecified) | inconclusive [inhibitor, full curve] |
| Cn1c(=O)c(C(=O)c2ccccc2)c(O)c2ccccc21 | inconclusive [inhibitor, single point] |
| Cc1c(OCC(=O)N2C[C@H]3C[C@@H](C2)c2cccc(=O)n2C3)ccc2c3c(c(=O)oc12)CCCC3 | inconclusive [inhibitor, single point] |
| Cn1c(N)c(C(=O)COC(=O)c2cccs2)c(=O)n(C)c1=O | inconclusive [inhibitor, partial curve] |

| Structure (SMILES) | Potency |
| --- | --- |
| COc1cccc(N=C2NC(=O)/C(=C/c3cc([N+](=O)[O-])ccc3O)S2)c1 | inconclusive [inhibitor, partial curve, poor fit] |
| CCOC(=O)c1c(/N=C/C2=C(O)CCCC2=O)sc2c1CCCC2 | inconclusive [inhibitor, partial curve, poor fit] |
| CC(C)(C)NC(=O)COc1ccccc1C#N | inconclusive [inhibitor, partial curve, poor fit] |
| C[C@H](CO)N1C[C@H](C)[C@@H](CN(C)Cc2ccc(-c3ccccc3)cc2)Oc2c(NC(=O)Cc3ccccc3)cccc2C1=O | inconclusive [inhibitor, full curve] |
| COc1cccc(/C=N/NC(=O)c2ccccc2NC(=O)c2ccco2)c1OC | inconclusive [inhibitor, partial curve, poor fit] |
| CC(=O)/C(=N\Nc1ccccc1)Oc1ccc(Br)cc1 | inconclusive [inhibitor, full curve] |
| O=C1NC(=S)SC1=Cc1ccc(F)cc1 | inactive |
| C#CCOCCOCCOCCNc1nc(N2CCN(C(=O)CCCCCCCCCCNC(=O)[C@@H](CCSC)n3cc(CCO)nn3)CC2)nc(N2CCN(C(=O)CCCCCCCCCCNC(=O)[C@H]([C@@H](C)CC)n3cc(CCCCN=C(N)N)nn3)CC2)n1 | inconclusive [inhibitor, partial curve] |
| Cc1cccnc1C(NC(=O)C1CCN(Cc2cn(C)c3ccccc23)CC1)c1ccc(Cl)cc1 (stereo unspecified) | inactive |
| COc1ccc(/C=C/C(=O)OCC(=O)NCC2CCCO2)cc1 (stereo unspecified) | inconclusive [inhibitor, full curve, poor fit] |
| COc1cc(-c2nc3ccc(C)cn3c2Nc2ccc3c(c2)OCCO3)ccc1O | inactive |
| CC(C)Cc1nc(SCc2cccnc2)c2c(=O)n(C)c(=O)n(C)c2n1 | inconclusive [inhibitor, full curve] |
| CCNC(=O)c1cc2c(c(-c3cccc(-c4cccc(C(=O)N(C)C)c4)c3)n1)[C@H](CCO)N(S(=O)C(C)(C)C)C2 (stereo partly specified) | inconclusive [inhibitor, single point] |
| O=C1c2ccccc2C(=O)N1CC(=O)N1c2ccccc2Sc2ccc(C(F)(F)F)cc21 | inconclusive [inhibitor, partial curve] |
| N#C/C(=C\c1c[nH]c2ccccc12)C(=O)NC1CCCC1 | inconclusive [inhibitor, full curve, poor fit] |
| CC(C)n1c(=O)[nH][nH]c1=S | inconclusive [inhibitor, full curve, poor fit] |
| CCCCc1c(-c2ccccc2OC)ncn1CCc1ccccc1OC | inconclusive [inhibitor, partial curve] |
| COc1cccc(CN(C)C(=O)c2cccc(OCc3ccccc3)c2)c1 | inconclusive [inhibitor, partial curve] |
| N#Cc1c(-c2ccc(F)cc2)cc(-c2cccs2)nc1SCC(=O)O | inconclusive [inhibitor, single point] |
| Clc1cccc(N/N=C/c2ccncc2)c1 | inconclusive [inhibitor, single point] |

— PubChem BioAssay AID720708 (National Center for Advancing Translational Sciences (NCATS), 2013)
